Results taken from patent US20200148757A1 (KOREA ADVANCED INSTITUTE OF SCIENCE AND TECHNOLOGY, published 2020).

How the values were obtained:
[1] = target: T1, HER2 on SKBR3 cells (human, UniProt P04626); assay: immunofluorescence staining of SKBR3 cells, Alexa-488 anti-human IgG
T1 construct: whole, on cells; SKBR3 cells express high levels of HER2 (endogenous); also called HER2+ SKBR3 cancer cells

[2] = target: T2, EGFR on A431 cells (human, UniProt P00533); assay: immunofluorescence staining of A431 cells, Alexa-488 anti-human IgG
T2 construct: whole, on cells; A431 cells express high levels of EGFR (endogenous); also called EGFR+ A431 cancer cells

- binding result [1]: no binding (tested: 50 nM)
- binding result [2]: no binding (tested: 50 nM)
B1: VEGF-Grab (Fc fusion)
chain: GRPFVEMYSEIPEIIHMTEGRELVIPCRVTSPNITVTLKKFPLDTLIPDGKRIIWDSRKGFIISNATYKEIGLLTCEATVNGHLYKTNYLTHRQTNTIIDVQISTPSPVTLLRGHTLVLNCTATTPLNTRVQMTWSYPDEKNKNASVRRRIDQSNSHANIFYSVLTIDKMQNKDKGLYTCRVRSGPSFKSVNTSVHIYDKALE[sequence of human IgG1 Fc omitted]
notes: also called parental VEGF-Grab; VEGFR1 domain 2-VEGFR1 domain 3-hinge-Fc fusion protein
